In PubChem BioAssay AID624417 (National Center for Advancing Translational Sciences (NCATS), 2012):
The whole screen tested about 410,000 compounds, of which about 6,400 (1.6%) were called active. The inconclusive results got no clear call from the source; some entries with a clear call stand among them for comparison. The call rests on the fitted dose curve; in most records, active means well fitted inhibition curve with a large enough effect; inconclusive means small, poorly fitted or top-dose-only effect; inactive means no such curve, though single readings can be large or run the other way. Potencies of inconclusive entries are doubtful fits and often do not repeat.

These compounds were tested against Glucagon-like peptide 1 receptor (Homo sapiens) (UniProt P43220) (assay: qHTS of GLP-1 Receptor Inverse Agonists (Inhibition Mode)). Settings: HEK293 GLP-1R CRE-luciferase, luminescence, 24 h, GLP-1R form is constitutively active; series mostly up to 38.3 µM.
UniProt P43220, sequence (P43220 whole entry, looked up): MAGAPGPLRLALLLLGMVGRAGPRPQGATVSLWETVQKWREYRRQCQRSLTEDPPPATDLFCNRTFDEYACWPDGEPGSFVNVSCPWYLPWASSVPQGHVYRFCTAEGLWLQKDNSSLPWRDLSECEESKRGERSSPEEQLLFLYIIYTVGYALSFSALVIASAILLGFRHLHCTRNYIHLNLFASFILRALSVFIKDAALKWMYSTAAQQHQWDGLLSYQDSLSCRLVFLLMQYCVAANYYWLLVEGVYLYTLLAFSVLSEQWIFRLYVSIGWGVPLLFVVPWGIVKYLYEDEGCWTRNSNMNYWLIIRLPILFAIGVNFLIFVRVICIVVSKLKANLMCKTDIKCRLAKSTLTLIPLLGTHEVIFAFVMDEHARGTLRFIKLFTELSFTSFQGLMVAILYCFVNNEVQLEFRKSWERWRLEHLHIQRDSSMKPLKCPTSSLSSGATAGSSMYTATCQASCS
Summary of the method: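 Using stably transfected HEK293 (constitutively active GLP-1R, cAMP-luciferase reporter), compounds were incubated 24 hr and luciferase measured by luminescence.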
Further: nearly all actives have a fitted effect of over 55% in size.
Potency means the concentration at half of the fitted maximal effect; tags describe the fitted curve by direction and shape.

Potency, inactive:
Cc1ccc(-c2csc(NC(=O)COC(=O)c3cccc(S(=O)(=O)N4CCOCC4)c3)n2)cc1
OCC(O)C1OC(c2ccccc2)OC(CO)C1O (configuration not stated)
CCN(C(=O)COC(=O)c1nccnc1N)c1cccc2ccccc12
COc1ccc(-c2noc(CCC(=O)Nc3ccccc3Cl)n2)cc1OC
Cc1cccc(Cc2c(C)nc3nc(SCC(=O)NC4CCCCC4)nn3c2C)c1
CSc1cccc(NS(=O)(=O)c2ccc3[nH]cc(C(=O)N4CCCCCC4)c(=O)c3c2)c1
CCOC(=O)N1CCN(c2nc(C(F)(F)F)nc3c(C)cc(C)cc23)CC1
Nc1nc(-c2cccc(Br)c2)cs1
COc1ccc(-c2cn3c(n2)sc2cc(C(=O)NC4CCCCC4)ccc23)cc1
Cc1cccc(C(=O)NCc2cn3cccc(C)c3n2)c1
CC(=O)NCCC(=O)Nc1cc(S(=O)(=O)N2CCOCC2)ccc1Oc1ccccc1
O=C(O)c1cc(O)c2c(c1)[C@@H]([C@H]1c3cc(C(=O)O)cc(O)c3C(=O)c3c(O[C@@H]4O[C@H](CO)[C@@H](O)[C@H](O)[C@H]4O)cccc31)c1cccc(OC3O[C@H](CO)[C@@H](O)[C@H](O)[C@H]3O)c1C2=O (some centres not stated)

Potency, inconclusive:
Cc1ccc(C(=O)CC(=O)c2ccccc2C)c(O)c1 14.1 µM [inhibitor, single point]
O=C(NCC(=O)N1CCN(C/C=C/c2ccccc2)CC1)c1ccc(OC(F)F)cc1 28.2 µM [inhibitor, single point]
COc1ccccc1CNC(=O)c1cnn(-c2ccc(F)cc2F)c1C1CCN(C(=O)OC(C)(C)C)CC1 11.2 µM [inhibitor, partial curve, poor fit]
CCN(CCCn1c(SCC#N)nc2ccccc2c1=O)c1ccccc1 28.2 µM [inhibitor, partial curve, poor fit]
Cc1cc(N)n2nc(-c3ccccc3)cc2n1 7.94 µM [inhibitor, single point]
Cc1cc2ccc(C)c(C)c2nc1SCC(=O)c1cccs1 28.2 µM [inhibitor, single point]
Cn1c(-c2ccccc2)c(C(=O)CCl)c2ccccc21 20 µM [inhibitor, single point]
CCOC(=O)C1CCN(Cc2cccc(Oc3ccccc3)c2)CC1 28.2 µM [inhibitor, single point]
Cc1nc(N(CCO)C2CCCCC2)c2nnn(Cc3ccccc3)c2n1 8.91 µM [inhibitor, partial curve, poor fit]
CCOc1ccc(CN2CCNC(=O)C2CC(=O)NCCc2nc(C)c3c(n2)CCC3)cc1 (configuration not stated) 1 µM [inhibitor, full curve, poor fit]
Cc1ccc(C2Nc3ccccc3C(=O)N2Cc2ccco2)cc1 (configuration not stated) 11.2 µM [inhibitor, partial curve, poor fit]
COc1ccccc1C1c2ccc3ccccc3c2Oc2ncn(CCCO)c(=N)c21 (configuration not stated) 12.6 µM [inhibitor, partial curve, poor fit]
O=C(CN1C(=O)S/C(=C\C=C\c2ccccc2)C1=O)Nc1cccc(O)c1 10 µM [inhibitor, single point]
COc1ccccc1N1CCN(Cc2cc(COC(C)C)c3cccnc3c2O)CC1 5.01 µM [inhibitor, full curve]
Cc1c(/C(O)=C2\C(=O)C(=O)N(CCCN(C)C)C2c2ccco2)cnn1-c1ccccc1 (configuration not stated) 2.51 µM [inhibitor, partial curve, poor fit]
Cc1cccc(OCCCn2c(=O)sc3ccccc32)c1 28.2 µM [inhibitor, single point]
O=C(Nc1cccc(Cl)c1)c1ccc2c(c1)OCCO2 10 µM [inhibitor, single point]
Cc1ccc(C(=O)c2cc(C)sc2NC(=O)CN2CCN(C(=O)c3ccco3)CC2)cc1 10 µM [inhibitor, partial curve, poor fit]
Cc1ccnc(NC(c2cc(C)ccc2O)c2ccc3cccnc3c2O)c1 (configuration not stated) 14.1 µM [inhibitor, single point]
CCc1ccc(CN(C)C(C)C(=O)Nc2ccc(S(=O)(=O)N3CCCC3)cc2)cc1 (configuration not stated) 12.6 µM [inhibitor, single point]
c1ccc(-c2sc3ccccc3c2-c2ccc(OCCN3CCOCC3)cc2)cc1 11.2 µM [inhibitor, partial curve, poor fit]
COc1ccc(C(=O)N2N=C(c3cccs3)CC2c2ccccc2O)cc1 (configuration not stated) 28.2 µM [inhibitor, single point]
COc1cc(-c2coc3c(C(=O)NCc4ccc(OC)c(OC)c4)cccc23)ccc1O 11.2 µM [inhibitor, partial curve, poor fit]
COc1ccc([C@H]2CC(=O)C=C(c3c(OC)cccc3OC)C2)cc1 14.1 µM [inhibitor, partial curve, poor fit]
N#Cc1c(C(F)(F)F)cc(-c2ccc(Cl)cc2)[nH]c1=O 28.2 µM [inhibitor, single point]
CC(Oc1ccc(Cl)cc1)C(=O)N/N=C/c1ccsc1 (configuration not stated) 28.2 µM [inhibitor, single point]
OC(c1cccc(Cl)c1)c1nc(/C=C/c2ccccc2)cs1 (configuration not stated) 28.2 µM [inhibitor, single point]

Potency, active:
COc1ccc(S(=O)(=O)N(C(=O)c2ccncc2)c2ccc3oc(C)c(C(C)=O)c3c2)cc1 3.16 µM
COc1cc(/C=N/Nc2nc(Nc3ccccc3)nc(N3CCOCC3)n2)ccc1OC(=O)c1ccco1 4.47 µM
COc1ccc2c(=O)c(-c3ccc(C)cc3)c(-c3ccccc3)oc2c1 7.94 µM
